The list shows a part of the results. At the low end of the ranking the order means little. The protein was read in a cell extract, so binding may be indirect.

The assay deals with T1, HNF4alpha2 (COS-7 nuclear extract) (UniProt P41235).
T1 sequence: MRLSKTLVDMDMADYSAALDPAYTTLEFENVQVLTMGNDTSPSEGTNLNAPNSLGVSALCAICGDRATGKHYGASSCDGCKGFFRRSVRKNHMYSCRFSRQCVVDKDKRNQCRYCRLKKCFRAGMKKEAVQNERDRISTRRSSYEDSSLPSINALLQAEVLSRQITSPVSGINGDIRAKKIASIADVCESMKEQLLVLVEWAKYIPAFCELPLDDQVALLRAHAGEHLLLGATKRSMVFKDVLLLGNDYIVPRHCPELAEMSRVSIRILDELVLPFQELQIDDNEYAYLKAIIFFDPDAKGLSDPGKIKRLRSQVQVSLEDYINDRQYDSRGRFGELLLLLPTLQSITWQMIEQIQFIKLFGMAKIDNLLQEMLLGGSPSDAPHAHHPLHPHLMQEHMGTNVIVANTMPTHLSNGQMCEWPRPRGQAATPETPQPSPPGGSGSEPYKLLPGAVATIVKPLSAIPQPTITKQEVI
The experiment in a line: protein-binding microarray. The following applies: COS-7 nuclear extract on double-stranded Agilent 4x180k PBM; binding buffer, salt, pH and temperature not given; high values mean tight binding; double strand, one strand shown; sequences stand for … in …GCCTAGGGAGATTAGAGTATCGGTCGA
Turning to ATTGTTATTTACGGTGGGCACCTCATACTA, the binding signal (log2 normalized intensity) was -1.13.
As for AGGTCAGAGGTGAGAGCAGAATGAGCAAGG, the figure is -1.16; as for GCTCCAGCGGGGTTTGAATCCCGGGAATCC, -1.1; as for CCCCTCCCCCAAGGCATGGGACCTTTGCCC, 6.5.
As for AGAATGAGGGGCAGGCTTAGCTGGGCTAGC, the figure is -1.11; as for AAGCCAATCTCTCAAATCTAGCCAATGATG, -0.322; as for AGTTTTAGAGTCAATACTCCACAAGACCAC, -1.13.
As for GAAACCCCTGTAAGTCCAAACAAAATACAA, the figure is -1.03.
As to TATCTGTTGTCAAACCCACATTCTTCACTG, the binding signal (log2 normalized intensity) is 0.407.
AGACTGAACAATTATTGCCTGGCATCTAAC: the binding signal (log2 normalized intensity) was -0.954.
Take GCCAACAACTAGGGCAAAGGTTAGCTTGGA: the binding signal (log2 normalized intensity) was 4.27.
For CCAAGGGCTGTAGCAACCAAGTACCGCAAA the value was -1.13.
Regarding GATAGTGGTTCCATTGTCCTACAGGACATT, the binding signal (log2 normalized intensity) amounted to 0.655.
In the case of AGGATGGGCCATGACCTTTACCCCCATTTG, the binding signal (log2 normalized intensity) was 7.65.
As for ATGGGGTGGGGCAGAAAGGGCATGGATTTA, the figure is -1.17.
For TCAAAGAACAAGTATCCTGGTAGTGCGACA the value was -0.618; for CGCTCCCCGACCTCCTGCTGCAGCTCTGGG, 0.0682.
As to CCAGATATAGGGGAGGTCCTAAAGAGGATA, the binding signal (log2 normalized intensity) is -0.775.
As to TCTGTTTTAGTTGAGTGTGACAAGAAAGAC, the binding signal (log2 normalized intensity) came to 1.09.
For TCTGCTCCCCCTGCCCTTCGTCCTGAGCAG the value was 2.23.
For CACATGTACACAGGAATATCAACAGGAGCA the value was -0.901; for TTACTTCCACATGTGGGGAAACTGGACTGT, 2.97.
As for TGCCCTGGACATATTTGTCTTCCTATCTCC, the binding signal (log2 normalized intensity) worked out at 0.887.
Take TATATGACTCTAGATTGTTTGTTCTTGCTA: the binding signal (log2 normalized intensity) is -0.701.
As for ATTCCTTGGACTCTGCCACTGGTTTGCACA, the figure is 1.15.
For TTTGCCTCCCTGCATTCCATTTCTGCCCCT, the binding signal (log2 normalized intensity) worked out at 3.98.
Turning to CAAAGGATACAGATAAATAAATCAAGATCA, the binding signal (log2 normalized intensity) was -1.17.
For ACCCTTGAACCTTCTTCTTGCAGTCCACAT the value was 1.59; for GGTGGTATGTGTGTGCTTTAACAAGGTGTG, 2.23; for GTCCAAACCCCTATGTTTAATGTATAAACC, 1.82.
As for AGCCCAATAAAATCTGGCAGCTTAAAAATG, the figure is -1.08; as for TTCCTGCAGGCCCATCTGGGACTTCAAAGC, -1.02; as for TTACTGGGGCCCATTGTATGAGGGTGAAGT, 1.01.
As for ATCTCCCAGGTCTCCTCCACAGAGCACAGG, the figure is -1.07.
For the sequence TATCAGTAGTTGCAAATATTGCAGTGTAGA, the binding signal (log2 normalized intensity) was found to be 0.939.
With CATAGGAACAAAGGTTGGTGTGAACCAGGG, the binding signal (log2 normalized intensity) worked out at 1.13.
For CATGTGCAAAAGCACCCAAGGCTCTGCACA the value was -1.15; for ATATTTTCTTTGTGCTATTTTTGGCTTGGT, 2.13.
In the case of GCCTTCGCACCTGCCTGTCTCACCTCGCTA, the binding signal (log2 normalized intensity) was -1.11.
For ATCTGACCTTTGGTTAACTTCTTAACTTGG the value was 2.97; for CATAAAACCTAGACAGAAGCTTTCTGAGAA, -1.13.
Consider AGTGAGACGTTCCAAACCGGTCTTTCCACT, for which the binding signal (log2 normalized intensity) was -1.21.
As for GCAGGCCCATCTGGGACTTCAAAGCGCAGC, the figure is -1.18.
For CCCAGACTGAATCACACTACTGGCTTTTCT the value was -1.12; for TTCCACACAGGTTATCTCATTACTCTGCAT, -1.07; for CAGCAGATAAGGCTAATCCTTACACAGCAG, -1.15.
Take TGCCCTGGGTAAACAGACCTCTCTCTCCCC: the binding signal (log2 normalized intensity) worked out at 1.77.
As for AGATAACAAGGGCATGTAAAGGAGATTATC, the figure is -0.325.
TTGCATGGTTGACATACTTCTGAGTTTTAT: the binding signal (log2 normalized intensity) turned out to be 1.68.
Take CAGTCTAAAGTAAATACCATTAGGGGGCAA: the binding signal (log2 normalized intensity) was 1.
As to TTGTTTACCTTGGTGTTTCTTTGATGTGAA, the binding signal (log2 normalized intensity) came out at 1.86.
Turning to AGTATTTAGCTTCCTCCCTTGGAATGTGAC, the binding signal (log2 normalized intensity) worked out at 1.86.
For CCTTAAGAGTTAATAACAGACCATGCCATG, the binding signal (log2 normalized intensity) is -1.12.
For CAAAGCATAGCAAGAGTGACCTTTGCTCCA the value was 8.97; for TCAGACTGGTGTAGTGGGGAGGGCATGGAC, 0.832.
Consider TGTCTGCTGAGAGATTCCTCTGCACAATAA, for which the binding signal (log2 normalized intensity) is -1.14.
As for CTATGGAACATGGACTTTGAACCTCTCTTC, the figure is 8.15; as for TCCAAAGTCCAGGTGCTTTCTTCTTGATCA, 2.54.
For CGAAAGCCGGTTCCCGCCCAAGGAGACAGG the value was -1.23; for CAAATATTAGAACAAACGACGCTCCTATCA, -1.06.
Take ATTTCCAAAAGGTACCACTGTTTGCAGCTG: the binding signal (log2 normalized intensity) is -1.12.
On to TTAACAAAATTCAACAAGACCCTGCCCTTT, for which the binding signal (log2 normalized intensity) is 3.32.
As for TTCTGCTATCTGCCTGCAGGAGAGAGCAAA, the figure is -1.11; as for AGGTCAACTGCCCTCTCAAATTACAAGGAG, -0.51.
As for CCTGGAATGACAAGAATTGGAACCCTGCTG, the figure is -0.575; as for TTCGGGGCACTGCTCCCTGCCCCTACCCCC, 5.02.
With GCAGCCTCCAAGATAAAGGGTCAGATTGTA, the binding signal (log2 normalized intensity) turned out to be 1.22.
For TTTTTGATTACCTTAGGGGGAAACAAAAGA the value was -1.02; for TCACCCTCTCCACCCCCATGCAAGTTCCCA, 5.26.
For the sequence TCTTCACCGTAAAGCCACCCCTTTCTCCTC, the binding signal (log2 normalized intensity) worked out at 3.28.
Consider AGGATTTTATTCAGGTGGCCACTGGCCCAG, for which the binding signal (log2 normalized intensity) was 0.241.
For ACAGGGAGTCTGTTGCAAGCAATGGAGAGG the value was -1.13; for TGCAACATACTGAAAAAGGGTTGTGCAAAC, 0.437.

The values are drawn from PMC10726135.
